Numbering of substitutions follows the chain as printed. These are yes or no findings as the source states them, for the method shown. In cells and extracts the contact can be indirect. Some binding calls cover weakened binding; strength is not graded here. For part of these data: Sequences can lack the tags named with a protein.
T1: OTUD1 C320A (co-IP assays of Figure 6E-G; tag not given) (UniProt Q5VV17)
T1 sequence: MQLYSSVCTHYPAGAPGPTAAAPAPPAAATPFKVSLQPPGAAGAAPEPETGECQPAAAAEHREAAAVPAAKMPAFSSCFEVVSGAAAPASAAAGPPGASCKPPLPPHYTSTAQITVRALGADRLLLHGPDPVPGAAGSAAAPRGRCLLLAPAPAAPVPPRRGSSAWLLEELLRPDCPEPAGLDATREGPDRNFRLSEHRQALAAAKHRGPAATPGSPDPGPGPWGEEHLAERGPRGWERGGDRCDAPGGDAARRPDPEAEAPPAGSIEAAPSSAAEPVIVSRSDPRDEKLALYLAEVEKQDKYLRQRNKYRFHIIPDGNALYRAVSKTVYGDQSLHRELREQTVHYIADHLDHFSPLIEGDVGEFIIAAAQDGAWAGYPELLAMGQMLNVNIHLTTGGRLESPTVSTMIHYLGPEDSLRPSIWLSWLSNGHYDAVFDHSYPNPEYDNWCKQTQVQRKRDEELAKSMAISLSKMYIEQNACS

The chains behind the UniProt entries cited, without tags or fusion partners. Where a name states a change or a piece, a line headed by the entry shows the natural chain unless it says otherwise. A line that says so, or that is headed by a name, gives the form on record, which may keep a tag or linker. Residues count along the entry.
endogenous apoptosis-inducing factor (AIF), wild type (human (endogenous in 293T and ESCC cell lines)) (O95831, residues 102-613): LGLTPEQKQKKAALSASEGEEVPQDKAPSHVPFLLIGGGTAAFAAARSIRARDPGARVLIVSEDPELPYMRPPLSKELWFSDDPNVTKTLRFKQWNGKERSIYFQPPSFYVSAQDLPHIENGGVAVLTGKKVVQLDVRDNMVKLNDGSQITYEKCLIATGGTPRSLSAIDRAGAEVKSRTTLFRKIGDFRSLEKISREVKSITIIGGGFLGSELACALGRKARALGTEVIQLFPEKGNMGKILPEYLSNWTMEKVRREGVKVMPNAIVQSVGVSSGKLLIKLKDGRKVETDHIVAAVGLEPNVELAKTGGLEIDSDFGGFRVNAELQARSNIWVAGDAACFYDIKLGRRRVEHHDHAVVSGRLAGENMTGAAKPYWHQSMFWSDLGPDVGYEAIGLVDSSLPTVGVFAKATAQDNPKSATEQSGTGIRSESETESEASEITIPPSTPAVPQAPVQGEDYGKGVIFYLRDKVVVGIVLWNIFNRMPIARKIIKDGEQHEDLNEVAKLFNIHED
endogenous AIF K255R (CRISPR knock-in, KYSE150) (human (endogenous in KYSE150)) (O95831, form named): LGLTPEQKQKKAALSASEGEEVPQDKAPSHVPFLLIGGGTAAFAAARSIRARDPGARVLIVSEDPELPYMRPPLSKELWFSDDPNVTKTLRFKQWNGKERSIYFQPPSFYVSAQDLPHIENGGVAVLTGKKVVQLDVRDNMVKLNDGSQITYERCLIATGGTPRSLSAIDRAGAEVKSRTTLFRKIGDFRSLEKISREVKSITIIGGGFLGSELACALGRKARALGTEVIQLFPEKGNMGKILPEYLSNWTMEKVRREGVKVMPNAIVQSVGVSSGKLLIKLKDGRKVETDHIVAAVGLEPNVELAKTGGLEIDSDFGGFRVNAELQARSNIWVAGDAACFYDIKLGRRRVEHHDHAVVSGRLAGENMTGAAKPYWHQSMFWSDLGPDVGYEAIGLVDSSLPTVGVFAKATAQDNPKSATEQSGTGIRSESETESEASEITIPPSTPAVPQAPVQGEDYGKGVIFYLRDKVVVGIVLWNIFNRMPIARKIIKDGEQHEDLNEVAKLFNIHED
endogenous AIF K244R (CRISPR knock-in, KYSE150) (human (endogenous in KYSE150)) (O95831, form named): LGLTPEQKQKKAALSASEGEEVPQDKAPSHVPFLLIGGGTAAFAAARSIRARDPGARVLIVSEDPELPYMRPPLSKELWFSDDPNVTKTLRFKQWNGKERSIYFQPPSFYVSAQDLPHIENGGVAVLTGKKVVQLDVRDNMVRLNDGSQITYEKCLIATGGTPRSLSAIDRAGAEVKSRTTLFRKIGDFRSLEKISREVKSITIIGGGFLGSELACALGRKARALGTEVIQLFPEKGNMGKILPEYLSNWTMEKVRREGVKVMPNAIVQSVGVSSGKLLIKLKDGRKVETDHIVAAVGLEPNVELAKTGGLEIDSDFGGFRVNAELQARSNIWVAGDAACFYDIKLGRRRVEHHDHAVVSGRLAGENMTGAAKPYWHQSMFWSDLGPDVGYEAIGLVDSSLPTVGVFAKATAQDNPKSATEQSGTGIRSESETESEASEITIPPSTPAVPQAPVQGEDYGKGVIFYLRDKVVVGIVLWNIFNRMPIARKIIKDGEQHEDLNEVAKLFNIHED
UniProt Q13619: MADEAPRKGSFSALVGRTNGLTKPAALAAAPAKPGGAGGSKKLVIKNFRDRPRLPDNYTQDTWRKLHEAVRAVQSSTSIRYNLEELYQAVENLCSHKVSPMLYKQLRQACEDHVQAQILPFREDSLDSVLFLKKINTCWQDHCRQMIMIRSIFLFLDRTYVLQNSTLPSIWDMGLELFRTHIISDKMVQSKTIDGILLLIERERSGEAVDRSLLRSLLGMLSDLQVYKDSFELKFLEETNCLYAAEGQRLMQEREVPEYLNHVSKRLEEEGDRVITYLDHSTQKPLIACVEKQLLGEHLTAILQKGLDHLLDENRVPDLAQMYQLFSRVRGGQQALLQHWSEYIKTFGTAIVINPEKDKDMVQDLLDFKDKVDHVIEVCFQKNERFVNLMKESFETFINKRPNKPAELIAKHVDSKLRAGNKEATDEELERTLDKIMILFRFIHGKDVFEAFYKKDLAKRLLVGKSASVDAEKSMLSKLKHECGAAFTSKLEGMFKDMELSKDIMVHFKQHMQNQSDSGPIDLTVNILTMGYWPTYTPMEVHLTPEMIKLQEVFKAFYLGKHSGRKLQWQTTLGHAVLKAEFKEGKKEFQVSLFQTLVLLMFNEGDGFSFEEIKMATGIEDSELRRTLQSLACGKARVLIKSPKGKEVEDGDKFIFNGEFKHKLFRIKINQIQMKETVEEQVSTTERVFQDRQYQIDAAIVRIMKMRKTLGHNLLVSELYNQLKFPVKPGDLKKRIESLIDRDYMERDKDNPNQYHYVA
UniProt Q16531: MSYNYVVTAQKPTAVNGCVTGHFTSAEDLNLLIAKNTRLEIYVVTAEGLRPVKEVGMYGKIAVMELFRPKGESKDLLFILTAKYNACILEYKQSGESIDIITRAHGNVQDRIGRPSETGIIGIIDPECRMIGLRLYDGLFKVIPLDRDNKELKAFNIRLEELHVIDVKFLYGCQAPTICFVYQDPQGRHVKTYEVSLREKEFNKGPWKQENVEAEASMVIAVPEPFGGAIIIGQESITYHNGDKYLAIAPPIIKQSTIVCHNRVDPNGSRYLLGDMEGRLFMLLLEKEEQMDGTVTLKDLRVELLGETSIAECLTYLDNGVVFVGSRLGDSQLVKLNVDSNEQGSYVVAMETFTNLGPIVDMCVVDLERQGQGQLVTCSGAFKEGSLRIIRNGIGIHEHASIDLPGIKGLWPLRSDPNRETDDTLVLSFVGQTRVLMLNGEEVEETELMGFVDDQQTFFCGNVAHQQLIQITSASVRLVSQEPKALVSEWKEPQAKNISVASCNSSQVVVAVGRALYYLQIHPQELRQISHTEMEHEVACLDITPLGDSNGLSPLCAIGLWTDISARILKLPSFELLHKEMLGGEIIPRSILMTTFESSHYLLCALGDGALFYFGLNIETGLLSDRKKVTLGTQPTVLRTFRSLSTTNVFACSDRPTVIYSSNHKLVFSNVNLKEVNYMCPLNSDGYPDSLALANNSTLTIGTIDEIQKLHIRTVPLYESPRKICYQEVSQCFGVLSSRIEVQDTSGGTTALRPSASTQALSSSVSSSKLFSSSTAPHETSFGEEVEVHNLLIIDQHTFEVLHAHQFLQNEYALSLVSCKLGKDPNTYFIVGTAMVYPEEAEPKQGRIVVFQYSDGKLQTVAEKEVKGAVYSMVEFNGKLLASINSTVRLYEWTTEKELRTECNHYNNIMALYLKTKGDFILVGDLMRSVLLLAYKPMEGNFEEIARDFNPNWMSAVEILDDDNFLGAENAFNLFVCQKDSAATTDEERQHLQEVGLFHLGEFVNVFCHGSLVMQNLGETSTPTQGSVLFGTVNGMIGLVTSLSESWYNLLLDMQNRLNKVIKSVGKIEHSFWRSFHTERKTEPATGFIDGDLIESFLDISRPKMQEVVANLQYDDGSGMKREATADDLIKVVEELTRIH

T2: V5-tagged OTUD1 (UniProt Q5VV17)
T2 sequence: T1 sequence with A320C

T3: wild-type OTUD1 (co-IP assays of Figures 6E-G, S3D, S7; tag not given) (UniProt Q5VV17)
T3 sequence: T1 sequence with A320C

B1: DCAF10 (co-IPs of Figure 6E-G and Figure S7; tag not told in the text) (protein, UniProt Q5QP82 1-559)
chain: MFPFGPHSPGGDGSAGAGAEEPTPHEGQAAATGPPSPLHPGADATHPPPPARSPRRPGAPSLSPAPRSGELGLPGAPESSTASAPGEPSPPSPPCRRPGPDCRAKSRGRHGLGAGLGGPGARLFGWLKERSLGRGLFVDPARDNFRTMTSLYGSIHPADSVYLSTRTHGAVFNLEYSPDGSVLTVACEQTEVLLFDPISSKHIKTLSEAHEDCVNNIRFLDNRLFATCSDDTTIALWDLRKLNTKVCTLHGHTSWVKNIEYDTNTRLLVTSGFDGNVIIWDTNRYTEDGCPHKKFFHTRFLMRMRLTPDCSKMLISTSSGYLLILHDLDLTKSLEVGSYPILRARRTTSSSDLTTSSSSSGPRVSGSPCHHSDSNSSEKHMSRASQREGVSPRNSLEVVTPEVLGESDHGNCITSLQLHPKGWATLLRCSSNSDDEECTCVYEFQEGAPVRPVSPRCSLRLTHYIEEANVGRGYIKELCFSPDGRMISSPHGYGIRLLGFDKQCSELVDCLPKEASPLRVIRSLYSHNDVVLTTKFSPTHCQIASGCLSGRVSLYQPKF
B2: GST-tagged DCAF10 (protein, UniProt Q5QP82 1-559)
chain: B1 chain
B3: coiled-coil-helix-coiled-coil-helix domain 4 (CHCHD4) (protein, UniProt Q8N4Q1 1-142)
chain: MSYCRQEGKDRIIFVTKEDHETPSSAELVADDPNDPYEEHGLILPNGNINWNCPCLGGMASGPCGEQFKSAFSCFHYSTEEIKGSDCVDQFRAMQECMQKYPDLYPQEDEDEEEEREKKPAEQAEETAPIEATATKEEEGSS
B4: macrophage migration inhibitory factor (MIF) (protein, UniProt P14174 1-115)
chain: MPMFIVNTNVPRASVPDGFLSELTQQLAQATGKPPQYIAVHVVPDQLMAFGGSSEPCALCSLHSIGKIGGAQNRSYSKLLCGLLAERLRISPDRVYINYYDMNAANVGWNNSTFA

Legend:
[1] = target: T1, OTUD1 C320A (co-IP assays of Figure 6E-G; tag not given); experiment: co-IP; in vivo co-IP of OTUD1 (wild type or C320A) with CUL4A, DDB1 and DCAF10 (Figure 6E-G); cells, tags and baits not given
V5-tagged OTUD1 = target: T2, V5-tagged OTUD1; experiment: co-IP; in vitro co-IP of V5-OTUD1 with GST-DDB1, GST-CUL4A or GST-DCAF10; GST proteins purified from E. coli, preparation of V5-OTUD1 not told
[2] = target: T3, wild-type OTUD1 (co-IP assays of Figures 6E-G, S3D, S7; tag not given); experiment: co-IP; in vivo co-IP of OTUD1 (wild type or C320A) with CUL4A, DDB1 and DCAF10 (Figure 6E-G); cells, tags and baits not given
[3] = target: endogenous apoptosis-inducing factor (AIF), wild type (human (endogenous in 293T and ESCC cell lines)) (UniProt O95831); experiment: co-IP; endogenous proteins in ESCC cell lysates (two ESCC cell lines; KYSE150 with endogenous wild-type, K244R or K255R AIF, with or without OTUD1 depletion); anti-AIF antibody with protein A/G magnetic beads, overnight at 4 °C; immunoblot
[4] = target: endogenous AIF K255R (CRISPR knock-in, KYSE150) (human (endogenous in KYSE150)) (UniProt O95831); experiment: as above
[5] = target: endogenous AIF K244R (CRISPR knock-in, KYSE150) (human (endogenous in KYSE150)) (UniProt O95831); experiment: as above

| Molecule | binding [1] | binding (V5-tagged OTUD1) | also measured |
| --- | --- | --- | --- |
| cullin 4A (CUL4A) (co-IP of Figure 6E-G) (from UniProt Q13619 1-759) | no binding | – | – |
| DDB1 (co-IP of Figure 6E-G) (from UniProt Q16531 1-1140) | no binding | – | – |
| GST-tagged CUL4A (from UniProt Q13619 1-759) | – | no binding | – |
| GST-tagged DDB1 (from UniProt Q16531 1-1140) | – | no binding | – |
| B1 | no binding | – | binding [2]: binds |
| B2 | – | binds | – |
| B3 | – | – | binding [3]: binds; binding [4]: binds |
| B4 | – | – | binding [5]: binds; binding [3]: binds; binding [4]: binds |

Reference: publication PMC8061361
